{"source": "PubChem BioAssay AID588855", "about": "(National Center for Advancing Translational Sciences (NCATS), 2011)", "note": "Values joined by “and” are separate entries in the source; they are usually repeats but may differ in a detail not shown here. Identical values can stand only once. Hit rate of the full screen: of about 410,000 compounds, about 5,000 (1.2%) were called active. The inconclusive results got no clear call from the source; some entries with a clear call stand among them for comparison. The call rests on the fitted dose curve; in most records, active means well fitted inhibition curve with a large enough effect; inconclusive means small, poorly fitted or top-dose-only effect; inactive means no such curve, though single readings can be large or run the other way. Potencies of inconclusive entries are doubtful fits and often do not repeat.", "data": [{"experiment": "qHTS for Inhibitors of TGF-b; further: nearly all actives have a fitted effect of over 65% in size; further: potency means the concentration at half of the fitted maximal effect; tags describe the fitted curve by direction and shape", "conditions": "HepG2 CAGA-GFP TGF-b/SMAD3 reporter, GFP fluorescence, 18 h, TGF-beta stimulated, 500 pg/mL final; series mostly up to 46.1 µM", "how_it_was_run": "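Smad-responsive CAGA-GFP expression was quantified in HEPG2 cells exposed to compounds and 500 pg/mL final TGF-beta for 18 h at 37 degrees C; unstimulated wells defined full inhibition.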", "values": [{"compound": "COCCn1c(C)cc(O)c(C(c2ccccc2F)N2CCN(c3ccccc3)CC2)c1=O", "note": "(stereo unspecified)", "Potency": "inactive"}, {"compound": "Clc1cccc(-c2sc(Nc3ccccc3)n[n+]2-c2ccccc2)c1Cl", "Potency": "inactive"}, {"compound": "CCc1cccc(-n2nnc(S(=O)(=O)c3ccc(OC)cc3)c2C)c1", "Potency": "inconclusive: 11.2 µM [inhibitor, partial curve]"}, {"compound": "O=C(c1cccc(Cl)c1)N1CCC(=O)N(C(COCc2cccc(Cl)c2)Cc2ccccc2)CC1", "note": "(stereo unspecified)", "Potency": "inconclusive: 15.8 µM [inhibitor, single point]"}, {"compound": "O=C(N/N=C/C=C/c1ccccc1)NC1CCCCC1", "Potency": "inconclusive: 35.5 µM [inhibitor, single point]"}, {"compound": "Cc1ccc(Cn2cc(CCC(=O)NCC(C)c3ccccc3)c3ccccc32)cc1", "note": "(stereo unspecified)", "Potency": "inconclusive: 20 µM [inhibitor, single point]"}, {"compound": "CCCC(=O)Nc1nc2ccc(C(=O)OCC)cc2s1", "Potency": "inactive"}, {"compound": "CCOc1ccc(S(=O)(=O)NCCC2=CCCCC2)c2ccccc12", "Potency": "inconclusive: 11.2 µM [inhibitor, partial curve, poor fit]"}, {"compound": "OC(c1cccnc1)c1nc(-c2cccc(F)c2)cs1", "note": "(stereo unspecified)", "Potency": "inactive"}, {"compound": "COc1cccc(CNS(=O)(=O)c2cc(-c3cc(C)no3)ccc2C(C)C)c1", "Potency": "inconclusive: 17.8 µM [inhibitor, single point]"}, {"compound": "Cc1coc2c(C)c3oc(=O)c(CCC(=O)N4CCCCC4)c(C)c3cc12", "Potency": "inconclusive: 35.5 µM [inhibitor, single point]"}, {"compound": "O=C(Cn1ccc2cc(S(=O)(=O)N3CCCCCC3)ccc21)NCc1cccc(Cl)c1", "Potency": "inconclusive: 2.24 µM [inhibitor, full curve]"}, {"compound": "Cc1cc(O)cc(O)c1-c1onc(C(F)(F)F)c1-c1cscn1", "Potency": "inconclusive: 11.2 µM [inhibitor, partial curve, poor fit]"}, {"compound": "COCCN1C(=O)N[C@@H](CCc2ccccc2)[C@@H](C(=O)OC)[C@H]1C", "Potency": "inconclusive: 6.31 µM [inhibitor, single point]"}, {"compound": "O=C(CN(Cc1ccc(Cl)c(Cl)c1)S(=O)(=O)c1ccccc1)N/N=C\\c1ccc2c(c1)OCO2", "Potency": "inconclusive: 15.8 µM [inhibitor, partial curve, poor fit]"}, {"compound": "CCCN1CCN(CCCNC(=O)c2cc3c(s2)-c2ccccc2OC3)CC1", "Potency": "inconclusive: 12.6 µM [inhibitor, partial curve, poor fit] and inconclusive: 35.5 µM [inhibitor, single point]"}, {"compound": "Cc1ccc(-n2nnnc2CCl)cc1", "Potency": "inconclusive: 35.5 µM [inhibitor, single point]"}, {"compound": "Cc1ccc(-c2nn(-c3ccccc3)cc2C(=O)N2CCN(c3ccccn3)CC2)cc1", "Potency": "inconclusive: 35.5 µM [inhibitor, single point]"}, {"compound": "COc1ccc2cc3cc(C(=O)NCCN4CCN(c5ccccc5F)CC4)oc3nc2c1", "Potency": "inactive"}, {"compound": "c1ccc(Nc2cccc(Nc3ccccc3)c2)cc1", "Potency": "inconclusive: 35.5 µM [inhibitor, single point]"}, {"compound": "CCC(C)Sc1ccc([C@@H]2[C@H]3C(=O)N(CC)C(=O)[C@H]3[C@]3(C(=O)OC)CCCCN23)cc1", "note": "(stereo partly specified)", "Potency": "inconclusive: 22.4 µM [inhibitor, single point]"}, {"compound": "CCOc1c(Cl)cc(/C=C/C(=O)N(CC)CC(=O)Nc2ccc(NC(C)=O)cc2)cc1OC", "Potency": "inconclusive: 15.8 µM [inhibitor, single point]"}, {"compound": "CCCNc1ncnc2c1c(-c1ccccc1)cn2-c1ccccc1", "Potency": "inconclusive: 35.5 µM [inhibitor, single point]"}, {"compound": "COc1ccc(CNC(=O)C2(C)Cc3c(-c4cccc(C(N)=O)c4)ccnc3O2)cc1OC", "note": "(stereo unspecified)", "Potency": "inactive"}, {"compound": "COc1ccc(C(CNc2ncnc3sccc23)N(C)C)cc1OC", "note": "(stereo unspecified)", "Potency": "inactive"}, {"compound": "CCCCN(C)C(=O)Cn1c(=O)oc2cc(S(=O)(=O)N3CC(C)CC(C)C3)ccc21", "note": "(stereo unspecified)", "Potency": "inconclusive: 35.5 µM [inhibitor, single point]"}, {"compound": "Cc1cccc(C(=O)N2CCCN(C(=O)c3cccc(C)c3)CC2)c1", "Potency": "inconclusive: 35.5 µM [inhibitor, single point]"}, {"compound": "CCc1c(C(=O)NNC(=O)Nc2ccc3c(c2)OCO3)csc1C", "Potency": "inconclusive: 25.1 µM [inhibitor, single point]"}, {"compound": "O=C1CN(C(=O)COC(=O)c2ccc([N+](=O)[O-])o2)c2ccccc2N1", "Potency": "inconclusive: 17.8 µM [inhibitor, partial curve, poor fit]"}, {"compound": "Cc1cccc(C=CC(=O)c2ccccc2)c1", "Potency": "inconclusive: 14.1 µM [inhibitor, single point]"}, {"compound": "CCc1ccc(NC(=O)Cn2c(=O)n(CCCC(=O)NCc3ccccc3Cl)c(=O)c3ccccc32)cc1", "Potency": "inconclusive: 17.8 µM [inhibitor, single point]"}, {"compound": "O=C(CCl)Nc1cc(SCC(O)CO)cc([N+](=O)[O-])c1", "note": "(stereo unspecified)", "Potency": "active: 2.82 µM"}, {"compound": "O=C(c1cccc(Cl)c1)N1CCC2CC1c1cc(-c3ccccc3)ccc12", "note": "(stereo unspecified)", "Potency": "inconclusive: 22.4 µM [inhibitor, single point]"}, {"compound": "Cc1ccccc1Oc1nc2ccccn2c(=O)c1/C=C(\\C#N)C(=O)Nc1c(C)n(C)n(-c2ccccc2)c1=O", "Potency": "inactive"}, {"compound": "NS(=O)(=O)c1cccc(NC(=O)c2cccc(S(=O)(=O)N3CCCCCC3)c2)c1", "Potency": "inconclusive: 35.5 µM [inhibitor, single point]"}, {"compound": "Cc1ccc2nc3sc(C(=O)N4CCOCC4)c(N)c3cc2c1", "Potency": "inactive"}, {"compound": "Cn1c(N)c(NC(=S)NC2CCCCC2)c(=O)n(C)c1=O", "Potency": "inactive"}, {"compound": "Cc1ccc(N(CC(O)Cn2c3ccccc3c3ccccc32)S(=O)(=O)c2ccc(F)cc2)cc1", "note": "(stereo unspecified)", "Potency": "active: 8.91 µM"}, {"compound": "CC(C)C[C@H](NC(=O)c1nc[nH]c1C(=O)N1CCN(c2ccccc2)CC1)C(=O)OC(C)(C)C", "Potency": "inconclusive: 7.08 µM [inhibitor, partial curve]"}, {"compound": "COc1cc(/C=N/NC(=Nc2ccc(C)cc2)c2nc3ccccc3s2)ccc1O", "Potency": "inconclusive: 35.5 µM [inhibitor, single point]"}, {"compound": "N#C/C(=C\\c1cccs1)Sc1nc2ccccc2s1", "Potency": "inconclusive: 17.8 µM [inhibitor, single point]"}, {"compound": "CCc1ccc(NC(=O)CN2C(=O)C3CCCN3c3ccc(S(=O)(=O)N(CC)CC)cc32)cc1", "note": "(stereo unspecified)", "Potency": "inconclusive: 11.2 µM [inhibitor, single point]"}, {"compound": "O=C(NC1CCCCC1)c1ccc(-c2ccccc2[N+](=O)[O-])o1", "Potency": "inconclusive: 3.16 µM [inhibitor, full curve]"}, {"compound": "COCCN(C(=O)CSc1ccc2c(c1)OCCO2)c1c(N)n(CC(C)C)c(=O)[nH]c1=O", "Potency": "inactive"}, {"compound": "N#Cc1c(NC(=O)CN2C(=O)c3ccccc3C2=O)oc(-c2ccccc2)c1-c1ccccc1", "Potency": "inactive"}, {"compound": "CSc1nc(N)nc(SCC(=O)C23CC4CC(CC(C4)C2)C3)c1C#N", "Potency": "inconclusive: 15.8 µM [inhibitor, single point]"}, {"compound": "CCNC(=S)N(Cc1ccco1)Cc1cc2cc(OCC)ccc2[nH]c1=O", "Potency": "inactive"}, {"compound": "O=C(NCC1CCCO1)c1ccc2c(=O)n(Cc3cccc(Br)c3)c(=S)[nH]c2c1", "note": "(stereo unspecified)", "Potency": "inconclusive: 35.5 µM [inhibitor, single point]"}, {"compound": "O=C1CN(S(=O)(=O)c2cccc(Br)c2)CCN1", "Potency": "inconclusive: 22.4 µM [inhibitor, single point]"}, {"compound": "CCOC(=O)c1nc(Nc2cc(C)cc(C)c2)c2ccccc2n1", "Potency": "inconclusive: 5.62 µM [inhibitor, single point]"}, {"compound": "Cn1cc(C(=O)O)c(=O)c2cc(S(=O)(=O)N3CCOCC3)ccc21", "Potency": "inconclusive: 14.1 µM [inhibitor, partial curve, poor fit]"}, {"compound": "O=C(NCc1ccccc1)C(c1ccco1)N(C(=O)c1ccccn1)c1ccc(F)cc1", "note": "(stereo unspecified)", "Potency": "inconclusive: 11.2 µM [inhibitor, single point]"}, {"compound": "Cc1cc(C)c(NC(=O)CCCOC(=O)C2=COCCO2)c(C)c1", "Potency": "inconclusive: 5.62 µM [inhibitor, single point]"}, {"compound": "N=c1n(CCN2CCCC2)c2ccccc2n1CC(O)c1ccco1", "note": "(stereo unspecified)", "Potency": "inactive"}, {"compound": "CCc1nc(Nc2ccc(OC)cc2OC)c2oc3ccccc3c2n1", "Potency": "inactive"}, {"compound": "Cc1ccnc(N2CCN(C(=O)CSc3nc4ccccc4nc3N3CCC(C)CC3)CC2)c1", "Potency": "inconclusive: 35.5 µM [inhibitor, single point]"}, {"compound": "COc1ccc(F)c(CN2CCC(CO)(Cc3cccc(C(F)(F)F)c3)CC2)c1", "Potency": "inconclusive: 35.5 µM [inhibitor, single point]"}, {"compound": "COc1ccccc1-c1nnc(C2CCN(S(=O)(=O)c3ccc(CC(C)C)cc3)CC2)o1", "Potency": "inconclusive: 11.2 µM [inhibitor, partial curve]"}, {"compound": "CC(C)(C)c1ccc(CC(=O)N2CCC2(C)C(=O)NCc2cccs2)cc1", "note": "(stereo unspecified)", "Potency": "inactive"}, {"compound": "CCOC(=O)N1CCN(CCC(=O)c2ccc(Cl)cc2)CC1", "Potency": "inconclusive: 35.5 µM [inhibitor, single point]"}, {"compound": "O=C1c2ccccc2C(=O)N1Nc1ccc([N+](=O)[O-])cc1[N+](=O)[O-]", "Potency": "inactive"}, {"compound": "Cc1ccc(C(C)C)cc1OCC(=O)Nc1ccc(N2CCCCC2)cc1", "Potency": "inactive"}, {"compound": "Cc1cc(C)nc(NN=C2CCCC2)n1", "Potency": "inconclusive: 3.16 µM [inhibitor, partial curve, poor fit]"}, {"compound": "O=C(O)CSc1nnnn1C1CCCCC1", "Potency": "inconclusive: 5.62 µM [inhibitor, single point]"}, {"compound": "Cc1ccc(COC(=O)c2ccc3ccccc3n2)cc1", "Potency": "inactive"}, {"compound": "COC(=O)c1sccc1S(=O)(=O)N(CC(=O)Nc1ccccc1C)c1ccc(Cl)cc1", "Potency": "inconclusive: 12.6 µM [inhibitor, partial curve, poor fit]"}]}]}
